# Data reported in the supplement of paper PMC8728848.
# This is one part of the list.
# B1: PVL (Psathyrella velutina), Q309D1_9AGAR (protein)
# chain: MSVVVISQALPVPTRIPGVADLVGFGNGGVYIIRNSLLIQVVKVINNFGYDAGGWRVEKHVRLLADTTGDNQPDVVGFGENGVWISTNNGNNTFVDPPKMVLANFAYAAGGWRVEKHIRFMADLRKTGRADIVGFGDGGIYISRNNGGGQFAPAQLALNNFGYAQGWRLDRHLRFLADVTGDGLLDVVGFGENQVYIARNSGNGTFQPAQAVVNNFCIGAGGWTISAHPRVVADLTGDRKADILGFGVAGVYTSLNNGNGTFGAVNLVLKDFGVNSGWRVEKHVRCVSSLTNKKVGDIIGFGDAGVYVALNNGNGTFGPVKRVIDNFGYNQGWRVDKHPRFVVDLTGDGCADIVGFGENSVWACMNKGDGTFGPIMKLIDDMTVSKGWTLQKTVRYAANLYL
# Columns and labels:
# Experiment in all cases: glycan array binding signal (z-score within array); higher = stronger binding
# Details in all cases: glycan notation: IUPAC condensed, linker removed
# [1] = biological target: GalNAc3S(b1-4)GlcNAc3S
# Procedure, shortened: (§1)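 Glycan array data came from 3228 arrays in the Consortium for Functional Glycomics database, and only arrays with an available protein sequence were kept. Glycan names were put into IUPAC-condensed notation, and columns mapping to the same glycan were averaged. The binding signal is a within-array Z-score, averaged across arrays of one protein sequence run at different concentrations or buffers and across linkers. A negative Z-score can be read as non-binding.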
# [2] = biological target: GalNAc3S(b1-4)[Fuc(a1-3)]GlcNAc
# Procedure, shortened: as §1
# [3] = biological target: GalNAc4S6S(b1-4)GlcNAc
# Procedure, shortened: as §1
# [4] = biological target: GalNAc6S(b1-4)GlcNAc
# Procedure, shortened: as §1
# [5] = biological target: Glc(a1-4)Glc
# Procedure, shortened: as §1
# [6] = biological target: Glc(a1-4)Glc(a1-4)Glc(a1-4)Glc
# Procedure, shortened: as §1
# [7] = biological target: Glc(a1-6)Glc(a1-6)Glc
# Procedure, shortened: as §1
# [8] = biological target: Glc(a1-6)Glc(a1-6)Glc(a1-6)Glc
# Procedure, shortened: as §1
# [9] = biological target: Glc(b1-4)Glc
# Procedure, shortened: as §1
# [10] = biological target: Glc(b1-6)Glc
# Procedure, shortened: as §1
# [11] = biological target: GlcA(b1-3)Gal
# Procedure, shortened: as §1
# [12] = biological target: GlcA(b1-3)GlcNAc
# Procedure, shortened: as §1
# [13] = biological target: GlcA(b1-6)Gal
# Procedure, shortened: as §1
# [14] = biological target: GlcA3S(b1-3)Gal(b1-4)GlcNAc(b1-2)Man
# Procedure, shortened: as §1
# [15] = biological target: GlcA3S(b1-3)Gal(b1-4)GlcNAc(b1-3)Gal(b1-4)Glc
# Procedure, shortened: as §1
# [16] = biological target: GlcNAc(a1-3)Gal(b1-4)GlcNAc
# Procedure, shortened: as §1
# [17] = biological target: GlcNAc(a1-4)Gal(b1-3)GlcNAc
# Procedure, shortened: as §1
# [18] = biological target: GlcNAc(a1-4)Gal(b1-4)GalNAc
# Procedure, shortened: as §1
# [19] = biological target: GlcNAc(a1-4)Gal(b1-4)GlcNAc
# Procedure, shortened: as §1
# [20] = biological target: GlcNAc(a1-4)Gal(b1-4)GlcNAc(b1-3)Gal(b1-4)Glc
# Procedure, shortened: as §1
# [21] = biological target: GlcNAc(a1-4)Gal(b1-4)GlcNAc(b1-3)Gal(b1-4)GlcNAc
# Procedure, shortened: as §1
# [22] = biological target: GlcNAc(a1-4)Gal(b1-4)GlcNAc(b1-3)Gal(b1-4)GlcNAc(b1-3)Gal(b1-4)GlcNAc
# Procedure, shortened: as §1
# [23] = biological target: GlcNAc(a1-4)Gal(b1-4)GlcNAc(b1-3)Gal(b1-4)[Fuc(a1-3)]GlcNAc(b1-3)Gal(b1-4)[Fuc(a1-3)]GlcNAc
# Procedure, shortened: as §1
# [24] = biological target: GlcNAc(a1-6)Gal(b1-4)GlcNAc
# Procedure, shortened: as §1
# [25] = biological target: GlcNAc(b1-2)Gal(b1-3)GalNAc
# Procedure, shortened: as §1
# [26] = biological target: GlcNAc(b1-2)Man(a1-3)[GlcNAc(b1-2)Man(a1-6)]Man(b1-4)GlcNAc(b1-4)GlcNAc
# Procedure, shortened: as §1
# [27] = biological target: GlcNAc(b1-2)Man(a1-3)[GlcNAc(b1-2)Man(a1-6)]Man(b1-4)GlcNAc(b1-4)[Fuc(a1-6)]GlcNAc
# Procedure, shortened: as §1
# [28] = biological target: GlcNAc(b1-2)Man(a1-3)[GlcNAc(b1-4)][GlcNAc(b1-2)Man(a1-6)]Man(b1-4)GlcNAc(b1-4)GlcNAc
# Procedure, shortened: as §1
# [29] = biological target: GlcNAc(b1-2)Man(a1-3)[GlcNAc(b1-4)][GlcNAc(b1-2)Man(a1-6)]Man(b1-4)GlcNAc(b1-4)[Fuc(a1-6)]GlcNAc
# Procedure, shortened: as §1
# [30] = biological target: GlcNAc(b1-2)[GlcNAc(b1-4)]Man(a1-3)[GlcNAc(b1-2)Man(a1-6)]Man(b1-4)GlcNAc(b1-4)GlcNAc
# Procedure, shortened: as §1
# [31] = biological target: GlcNAc(b1-2)[GlcNAc(b1-4)]Man(a1-3)[GlcNAc(b1-4)][GlcNAc(b1-2)Man(a1-6)]Man(b1-4)GlcNAc(b1-4)GlcNAc
# Procedure, shortened: as §1
# [32] = biological target: GlcNAc(b1-2)[GlcNAc(b1-4)]Man(a1-3)[GlcNAc(b1-4)][GlcNAc(b1-2)[GlcNAc(b1-6)]Man(a1-6)]Man(b1-4)GlcNAc(b1-4)GlcNAc
# Procedure, shortened: as §1
# [33] = biological target: GlcNAc(b1-2)[GlcNAc(b1-4)]Man(a1-3)[GlcNAc(b1-4)][GlcNAc(b1-2)[GlcNAc(b1-6)]Man(a1-6)]Man(b1-4)GlcNAc(b1-4)[Fuc(a1-6)]GlcNAc
# Procedure, shortened: as §1
# [34] = biological target: GlcNAc(b1-2)[GlcNAc(b1-6)]Man(a1-6)[GlcNAc(b1-2)Man(a1-3)]Man(b1-4)GlcNAc(b1-4)GlcNAc
# Procedure, shortened: as §1
# [35] = biological target: GlcNAc(b1-2)[GlcNAc(b1-6)]Man(a1-6)[GlcNAc(b1-2)Man(a1-3)]Man(b1-4)GlcNAc(b1-4)[Fuc(a1-6)]GlcNAc
# Procedure, shortened: as §1
# [36] = biological target: GlcNAc(b1-2)[GlcNAc(b1-6)]Man(a1-6)[GlcNAc(b1-4)][GlcNAc(b1-2)Man(a1-3)]Man(b1-4)GlcNAc(b1-4)GlcNAc
# Procedure, shortened: as §1
# [37] = biological target: GlcNAc(b1-3)Fuc
# Procedure, shortened: as §1
# [38] = biological target: GlcNAc(b1-3)Gal
# Procedure, shortened: as §1
binder,measurement,setting,value
B1,glycan array binding signal (z-score),[1],-0.369
same,glycan array binding signal (z-score),[2],-0.356
same,glycan array binding signal (z-score),[3],-0.362
same,glycan array binding signal (z-score),[4],-0.333
same,glycan array binding signal (z-score),[5],-0.366
same,glycan array binding signal (z-score),[6],-0.34
same,glycan array binding signal (z-score),[7],-0.373
same,glycan array binding signal (z-score),[8],-0.341
same,glycan array binding signal (z-score),[9],-0.365
same,glycan array binding signal (z-score),[10],-0.37
same,glycan array binding signal (z-score),[11],-0.369
same,glycan array binding signal (z-score),[12],-0.352
same,glycan array binding signal (z-score),[13],-0.358
same,glycan array binding signal (z-score),[14],-0.368
same,glycan array binding signal (z-score),[15],-0.332
same,glycan array binding signal (z-score),[16],3.02
same,glycan array binding signal (z-score),[17],2.8
same,glycan array binding signal (z-score),[18],0.695
same,glycan array binding signal (z-score),[19],2.67
same,glycan array binding signal (z-score),[20],3.58
same,glycan array binding signal (z-score),[21],2.81
same,glycan array binding signal (z-score),[22],4.19
same,glycan array binding signal (z-score),[23],1.73
same,glycan array binding signal (z-score),[24],1.91
same,glycan array binding signal (z-score),[25],0.08
same,glycan array binding signal (z-score),[26],1.69
same,glycan array binding signal (z-score),[27],0.519
same,glycan array binding signal (z-score),[28],0.188
same,glycan array binding signal (z-score),[29],0.461
same,glycan array binding signal (z-score),[30],1.24
same,glycan array binding signal (z-score),[31],0.537
same,glycan array binding signal (z-score),[32],0.078
same,glycan array binding signal (z-score),[33],0
same,glycan array binding signal (z-score),[34],1.06
same,glycan array binding signal (z-score),[35],1.56
same,glycan array binding signal (z-score),[36],0.06
same,glycan array binding signal (z-score),[37],0.23
same,glycan array binding signal (z-score),[38],2.44
